This note sets out measurements from the supplement of paper PMC10037445.

Whole data set: some 2,900 compounds, median “IRF Lucia reporter activity, fold change vs agonist alone” near 0.9, cut for the highest 2% near 2.8. The list shows a part of the results.

Experiment [1] concerns RAW-Dual. Briefly: IRF Lucia reporter activity, fold change vs agonist alone; higher = enhanced IRF activity. The conditions noted are these: library stock concentration (final ~1000-fold dilution): 10 mM, agonist: MPLA (TLR4) […]. An outline of the steps: (§1)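 Supernatant from RAW-Dual macrophages was read after 20 hours for IRF by QuantiLuc luminescence and for NF-κB by QuantiBlue absorbance at 620 nm. The cells (50,000 cells/well in DMEM, 384-well plates, 37 °C, 5% CO2) had received 50 nL of library stock by pin tool and, 1 h later, a PRR agonist. Reporter activity is expressed relative to agonist-alone wells as fold change, and wells were flagged cytotoxic if IncuCyte confluency was under 70% of agonist controls in both mask sets.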

The subject of experiment [2] is RAW-Dual. Briefly: IRF Lucia reporter activity, fold change vs agonist alone; cytotoxicity flag (confluency mask): not cytotoxic; higher = enhanced IRF activity. An outline of the steps: as §1
Experiment [3] deals with RAW-Dual. The experiment can be described thus: IRF Lucia reporter activity, fold change vs agonist alone; cytotoxicity flag (confluency mask): cytotoxic (confluency <70% of control); higher = enhanced IRF activity. An outline of the steps: as §1
The mark [4] stands for this setting: cytotoxicity flag (confluency mask): not cytotoxic.
The mark [5] stands for this setting: agonist: 3'3'-cGAMP (STING) 10 ug/mL.

`Oc1cc(O)c2c(c1)OC(c1ccc(O)c(O)c1)C(O)C2` (stereo unspecified): in the experiment with RAW-Dual [1] (setting [4]), the “IRF Lucia reporter activity” value amounted to 1.02.

As to `Oc1cc(O)c2c(c1)OC(c1ccc(O)c(O)c1)C(O)C2` (stereo unspecified) (library stock concentration (final ~1000-fold dilution): 10 mM), the “IRF Lucia reporter activity” value in the experiment on RAW-Dual [2] (setting [5]) is 0.998; in the experiment with RAW-Dual [2] (agonist: LPS (TLR4) 0.1 ug/mL), 1.32.

`COc1cc(-c2cc(-c3cccc(O)c3)cnc2N)cc(OC)c1OC`: the “IRF Lucia reporter activity” value in the experiment on RAW-Dual [1] (setting [4]) stood at 0.416.

As to `COc1cc(-c2cc(-c3cccc(O)c3)cnc2N)cc(OC)c1OC` (library stock concentration (final ~1000-fold dilution): 10 mM), the entries for the “IRF Lucia reporter activity” value in the experiment on RAW-Dual [2] (setting [5]) and in the experiment with RAW-Dual [2] (agonist: LPS (TLR4) 0.1 ug/mL) were 0.109 and 0.467, respectively.

Take `O=c1[nH]c(=S)[nH]c2nc(-c3ccccc3)c(-c3ccccc3)nc12` (library stock concentration (final ~1000-fold dilution): 10 mM): the “IRF Lucia reporter activity” value in the experiment with RAW-Dual [2] (setting [5]) was found to be 0.875; in the experiment with RAW-Dual [2] (agonist: LPS (TLR4) 0.1 ug/mL), 0.934.

Regarding `O=C(NCC(O)CN1CCc2ccccc2C1)c1cc(NC2COC2)ncn1` (stereo unspecified) (library stock concentration (final ~1000-fold dilution): 10 mM), the “IRF Lucia reporter activity” value was determined as 1.07 with RAW-Dual [2] (setting [5]) and 1.2 with RAW-Dual [2] (agonist: LPS (TLR4) 0.1 ug/mL).

As for `CC12CCCN1CC1=NNC(=O)c3cc(F)cc4[nH]c2c1c34` (stereo unspecified) (library stock concentration (final ~1000-fold dilution): 10 mM), the “IRF Lucia reporter activity” value in the experiment on RAW-Dual [2] (setting [5]) worked out at 0.404; with RAW-Dual [2] (agonist: LPS (TLR4) 0.1 ug/mL), 0.134.

`COc1cc2c(c(OC)c1OC)-c1c(cc3c(c1OC)OCO3)C[C@H](C)[C@](C)(O)[C@H]2OC(=O)c1ccccc1` (library stock concentration (final ~1000-fold dilution): 10 mM): the “IRF Lucia reporter activity” value is 0.947 with RAW-Dual [2] (setting [5]) and 1.22 in the experiment on RAW-Dual [2] (agonist: LPS (TLR4) 0.1 ug/mL).

Consider `CCN1CCN(c2ccc(Nc3cc(N(C)C(=O)Nc4c(Cl)c(OC)cc(OC)c4Cl)ncn3)cc2)CC1` (library stock concentration (final ~1000-fold dilution): 10 mM), for which the “IRF Lucia reporter activity” value turned out to be 1.05 in the experiment with RAW-Dual [2] (setting [5]) and 0.312 in the experiment on RAW-Dual [2] (agonist: LPS (TLR4) 0.1 ug/mL).

In the case of `CCN1CCN(c2ccc(Nc3cc(N(C)C(=O)Nc4c(Cl)c(OC)cc(OC)c4Cl)ncn3)cc2)CC1`, the “IRF Lucia reporter activity” value in the experiment with RAW-Dual [1] (setting [4]) was 1.

For `Oc1cc(O)cc(/C=C/c2ccc(O)c(O)c2)c1` (library stock concentration (final ~1000-fold dilution): 10 mM), the “IRF Lucia reporter activity” value was found to be 0.253 in the experiment with RAW-Dual [2] (setting [5]) and 0.481 in the experiment with RAW-Dual [2] (agonist: LPS (TLR4) 0.1 ug/mL).

Turning to `Oc1cc(O)cc(/C=C/c2ccc(O)c(O)c2)c1`, the “IRF Lucia reporter activity” value in the experiment with RAW-Dual [1] (setting [4]) worked out at 0.636.

For `Nc1nnc(-c2cccc(Cl)c2Cl)c(N)n1` (library stock concentration (final ~1000-fold dilution): 10 mM), the results for the “IRF Lucia reporter activity” value with RAW-Dual [2] (setting [5]) and with RAW-Dual [2] (agonist: LPS (TLR4) 0.1 ug/mL) were 1.1 and 0.901, respectively.

Regarding `Nc1nnc(-c2cccc(Cl)c2Cl)c(N)n1`, the “IRF Lucia reporter activity” value in the experiment with RAW-Dual [1] (setting [4]) was 1.07.

Take `NCCNc1ccc(NCCN)c2c1C(=O)c1ccncc1C2=O.O=C(O)/C=C\C(=O)O.O=C(O)/C=C\C(=O)O`: in the experiment on RAW-Dual [1] (cytotoxicity flag (confluency mask): cytotoxic (confluency <70% of control)), the “IRF Lucia reporter activity” value came out at 0.174.

In the case of `NCCNc1ccc(NCCN)c2c1C(=O)c1ccncc1C2=O.O=C(O)/C=C\C(=O)O.O=C(O)/C=C\C(=O)O` (library stock concentration (final ~1000-fold dilution): 10 mM), the “IRF Lucia reporter activity” value in the experiment on RAW-Dual [3] (setting [5]) came to 0.256; with RAW-Dual [3] (agonist: LPS (TLR4) 0.1 ug/mL), 0.151.
